Assay results taken from paper PMC4336329 (PLoS ONE, 2015).
Hit rate of the full screen: of about 310,000 compounds, about 14,000 (4.5%) showed an effect of 50% or more. The effect is printed as a negative number. The list shows a part of the results.

Biological target: human ether-à-go-go-related gene (hERG) potassium channel (human, UniProt Q12809)
Assay: primary screen, population patch clamp on CHO cells stably expressing hERG
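Also: peak tail current of the secondary pulse compared with the same well before compound.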

Sequence of human ether-à-go-go-related gene (hERG) potassium channel (Q12809 whole entry, looked up): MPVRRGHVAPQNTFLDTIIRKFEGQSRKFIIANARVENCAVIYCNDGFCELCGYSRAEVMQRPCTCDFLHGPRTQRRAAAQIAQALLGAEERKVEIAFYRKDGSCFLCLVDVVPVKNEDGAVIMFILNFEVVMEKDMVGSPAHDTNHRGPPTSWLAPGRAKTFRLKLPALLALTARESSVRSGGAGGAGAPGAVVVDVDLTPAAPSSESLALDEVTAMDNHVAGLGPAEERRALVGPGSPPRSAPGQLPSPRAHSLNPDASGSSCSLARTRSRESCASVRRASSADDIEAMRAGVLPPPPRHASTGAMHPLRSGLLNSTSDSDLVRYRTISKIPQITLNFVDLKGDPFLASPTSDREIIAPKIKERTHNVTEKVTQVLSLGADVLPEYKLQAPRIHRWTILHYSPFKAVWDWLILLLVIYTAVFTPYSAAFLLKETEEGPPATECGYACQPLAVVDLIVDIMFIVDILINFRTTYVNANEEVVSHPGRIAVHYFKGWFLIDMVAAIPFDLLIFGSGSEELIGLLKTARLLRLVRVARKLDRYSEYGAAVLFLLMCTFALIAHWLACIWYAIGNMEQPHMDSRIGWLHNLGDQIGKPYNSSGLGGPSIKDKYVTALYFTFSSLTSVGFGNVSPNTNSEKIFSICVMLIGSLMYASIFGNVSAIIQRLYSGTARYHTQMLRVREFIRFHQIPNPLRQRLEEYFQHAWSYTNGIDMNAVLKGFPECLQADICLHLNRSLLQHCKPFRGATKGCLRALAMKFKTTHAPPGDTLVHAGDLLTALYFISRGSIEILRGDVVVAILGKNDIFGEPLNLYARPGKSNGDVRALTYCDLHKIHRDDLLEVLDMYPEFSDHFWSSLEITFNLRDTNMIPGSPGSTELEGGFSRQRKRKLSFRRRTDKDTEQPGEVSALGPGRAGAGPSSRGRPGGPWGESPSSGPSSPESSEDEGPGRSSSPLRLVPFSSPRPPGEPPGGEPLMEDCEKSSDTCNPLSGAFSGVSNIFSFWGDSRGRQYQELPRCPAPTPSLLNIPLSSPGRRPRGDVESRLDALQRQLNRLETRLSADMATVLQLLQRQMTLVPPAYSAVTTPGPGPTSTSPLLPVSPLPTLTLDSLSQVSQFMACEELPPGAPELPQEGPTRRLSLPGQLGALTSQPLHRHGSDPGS

| SMILES | hERG current change (%, negative = inhibition) at 10uM [%] |
| --- | --- |
| O=[N+]([O-])c1ccc(N(c2ccccc2)c2ccccc2)cc1 | 4.46 |
| Cc1ccc(OCCC(=O)NNC(=O)c2cc(C)oc2C)cc1 | 9.57 |
| O=C(NC1C=CS(=O)(=O)C1)c1sc2ccccc2c1Cl (stereo not drawn) | -49.2 |
| CN(C)C(=O)c1ccc(NC(=O)COC(=O)Cn2cc(C(F)(F)F)ccc2=O)cc1 | -16.8 |
| COc1cccc(CNC(=O)Cn2ncn3cccc3c2=O)c1OC | 2.53 |
| COc1ccc(-c2csc(N(CCCN(C)C)C(=O)c3ccc(Br)cc3)n2)cc1.O=C(O)C(=O)O | -44 |
| Cn1c(=O)c2c(n3cnnc13)-c1ccccc1CC21CCCC1 | -15.6 |
| Cc1c(Cl)c([N+](=O)[O-])nn1CC(=O)NC1CCCCC1 | 0.666 |
| O=C(Nc1ccc(S(=O)(=O)N2CCCCCC2)cc1)c1ccc(Br)o1 | -14.5 |
| CSCCC(NS(=O)(=O)c1ccc(Cl)cc1)C(=O)OCC(=O)NC1CCCCC1 (stereo not drawn) | -18.2 |
| CCc1cccc(CC)c1NC(=O)CN1CCN(S(=O)(=O)c2ccccc2)CC1 | 6.21 |
| OC(CNCc1ccccc1)(c1ccccc1)c1ccccc1 | -9.7 |
| CCCCOc1ccc(N2C(=O)CC(NCCc3ccc(S(N)(=O)=O)cc3)C2=O)cc1 (stereo not drawn) | -24.6 |
| N=c1ncn(CC(O)CO)c2nc(N3CCOCC3)[nH]c12 (stereo not drawn) | 9.85 |
| Cc1nn(C)cc1CN(C)C(=O)c1cc2nc(-c3ccco3)cc(C(F)(F)F)n2n1 | -21.9 |
| COc1ccc(CNC(=O)c2coc(=O)c3ccccc23)cc1 | -27.3 |
| O=C1C=C(O)C(n2cncn2)C(c2ccc3c(c2)OCO3)C1 (stereo not drawn) | 17.1 |
| Cc1ccc(NC(=O)c2ccn(C(=O)Nc3ccccc3)n2)c(C)c1 | 2.97 |
| O=S(=O)(NCCCCCCNS(=O)(=O)c1c(F)cccc1F)c1ccc2c(c1)OCCO2 | -7.13 |
| O=C(NCc1ccco1)c1cnc2n(c1=O)CCS2 | -11.4 |
| Cc1nc2ccc(NC(=S)N3CCN(c4ccccn4)CC3)cc2nc1C | -13.5 |
| O=C(NC(=O)N1CCN(c2ccccc2F)CC1)c1ccccc1 | -8.06 |
| OCC12COC(c3ccccc3)N1C(c1ccccc1)OC2 (stereo not drawn) | 18.2 |

| SMILES | hERG current change (%, negative = inhibition) at 10uM [%] |
| --- | --- |
| CN1CCN(c2ccc(N)cc2)CC1 | 2.07 |
| CCC1C(C#N)=C(SCC(N)=O)NC2=C1C(=O)CC(C)(C)C2 (stereo not drawn) | 1.07 |
| S=C(NCCCc1ccccc1)Nc1ccc(Cl)cc1 | 12.3 |
| Cc1cc(NC(=O)c2cccs2)no1 | 9.7 |
| COc1cc(/C=C2\SC(=S)N(NS(=O)(=O)c3ccc(C)cc3)C2=O)ccc1O | -18.5 |
| COc1ccc([C@H]2CC(=O)C=C(c3ccc(OC)nc3)C2)cc1 | 14.2 |
| CC1(c2nnc(Cc3ccccc3)o2)CC(c2ccc(OC(F)(F)F)cc2)=NO1 (stereo not drawn) | -22.5 |
| COc1ccc(NC(=O)c2ccco2)c(NC(=O)c2ccc([N+](=O)[O-])cc2)c1 | -13.1 |
| COc1ccc(C[C@H]2CN3C(=NC[C@H]3Cc3ccccc3)N2CCNC(=O)CCC2CCCCC2)cc1 | -71.9 |
| CCOc1cccc(C(=O)NC(=S)Nc2ccc(Cl)cc2C(=O)O)c1 | 35.1 |
| COc1cccc(-c2cccc(NC(=O)C3CCN(Cc4ccon4)CC3)c2)c1 | -27.8 |
| CCOC(=O)c1sc(=S)n(-c2ccc(F)c(F)c2)c1N | 10.7 |
| O=C(NCc1ccc2c(c1)OCO2)c1ccc(CSCc2ccc(Cl)cc2)o1 | 11 |
| CN(C)c1ccc(CN(C(=O)c2ccccc2Br)C2CCS(=O)(=O)C2)cc1 (stereo not drawn) | 8.81 |
| CC1=CC(c2ccccc2)n2nc(N3C(=O)CCC3=O)nc2N1.O=C(O)CCC(=O)O (stereo not drawn) | 2.59 |
| CC1CCCN(S(=O)(=O)c2ccccc2[N+](=O)[O-])C1 (stereo not drawn) | 7.35 |
| CCC(C)c1ccc(NC(=O)C2CC2)cc1 (stereo not drawn) | 5.22 |
| COc1ccc(CN(C)CC(=O)Nc2ccccc2C(F)(F)F)cc1 | 14.7 |
| COc1ccc(-c2ccc(Nc3ccc(S(=O)(=O)N4CCCC4)cc3)nn2)cc1OC | 6.55 |
| O=C(NNS(=O)(=O)c1ccc(F)cc1)C1CCCCC1 | 18.4 |
| Cc1ccc(S(=O)(=O)N(CC(=O)NCCSCc2ccco2)c2ccc(F)cc2)cc1 | -28.3 |
| CCOC(=O)CN(c1ccccc1)S(=O)(=O)c1ccc(F)cc1 | 1.93 |
| CC(=O)c1c(NC(=O)C(C)C)nc(C)nc1-c1ccccc1 | 5.43 |

| SMILES | hERG current change (%, negative = inhibition) at 10uM [%] |
| --- | --- |
| COc1ccc(CCNC(=S)Nc2cccc(C)c2C)cc1 | -12.8 |
| COc1ccc(/C=C/c2nc(-c3ccccc3)cc(=O)[nH]2)cc1 | -8.55 |
| O=c1[nH]c(SCc2ccccc2Cl)nc2[nH]ncc12 | 16 |
| COc1ccccc1NCC(O)COc1ccc(C(C)(C)C)cc1.O=C(O)C(=O)O (stereo not drawn) | 6.79 |
| Nc1nc(SCC(=O)N2CCc3ccccc3C2)[nH]c(=O)c1-c1ccccc1 | -7.24 |
| CCOC(=O)C1CCN(C(=O)CCC(=O)NCCc2ccc(Cl)cc2)CC1 | -8.97 |
| CCOC(=O)c1cc(-c2ccccc2)sc1NC(=O)C(C)(C)C | 0.0757 |
| Cc1ccccc1N(C(=O)c1ccco1)C(C(=O)NC1CCCC1)c1cccnc1 (stereo not drawn) | 2.84 |
| CCCN(CC(=O)Nc1ccccc1OC)C(=O)C1=COCCO1 | -0.283 |
| N#CCC(=O)N/N=C\c1cccc(OC/C=C/c2ccccc2)c1 | 12.5 |
| Cc1cnc(NC(=O)CSc2nnc(-c3ccncc3)n2C2CCCCC2)s1 | -18.9 |
| Cn1c(=O)n(CCc2ccccc2)c2ccccc21 | 12.2 |
| COCCCn1c2nc3ccccc3nc2c2c(=O)n(-c3ccccc3OC)cnc21 | 3 |
| O=C(CSC1=NCCS1)Nc1ccc(S(=O)(=O)N2CCCCCC2)cc1 | -19.2 |
| CC(C)Cn1c(N)c(-c2nc(C(C)C)c(C(=O)c3ccccc3F)s2)c(=O)n(C)c1=O | 21.8 |
| COc1cc(/C=N/Nc2nc3ccccc3s2)ccc1O | -4.96 |
| CCc1ccc(C(=O)CSc2n[nH]c(C)n2)cc1 | 1.78 |
| COC(=O)CCCC1=CC2=CC(=O)C(C)(O)C(=O)C2=CO1 (stereo not drawn) | 7.61 |
| CCOC(=O)N1CCN(Cc2nc3cc(NC(=O)c4cccs4)ccc3n2C)CC1 | -74.7 |
| COc1ccc(-n2c(CCC(=O)O)ccc2-c2ccc(F)cc2)c(OC)c1 | 7.95 |
| CCS(=O)(=O)NCc1nnc2n1-c1ccc(Br)cc1C(c1ccccc1Cl)=NC2 | -49 |
| COc1ccc(CNc2nc(NCc3ccc(OC)cc3)c3[nH]cnc3n2)cc1 | 13.8 |
| C[N+](C)(C)C[C@H](O)CC(=O)O.[Cl-] | 12 |

| SMILES | hERG current change (%, negative = inhibition) at 10uM [%] |
| --- | --- |
| CC1(C)CC(=O)C(C(O)c2ccc([N+](=O)[O-])cc2)C(C)(C)N1 (stereo not drawn) | -13 |
| Cc1nnc(SCC(=O)NCc2ccco2)[nH]c1=O | 3.4 |
| CC(=O)Nc1ccc(OC(=O)c2ccccc2N)cc1 | -18.7 |
| CC(=O)Oc1ccc(C(=O)Nc2ccccc2C(=O)NCC(C)C)cc1 | -1.3 |
| Cc1ccc(C(=O)N/C(=C\c2ccc(Cl)cc2)C(=O)NCCCN2CCOCC2)cc1 | -72.5 |
| CC(SC1CCCC1)C(=O)NC(C)(C#N)C(C)C (stereo not drawn) | -8.61 |
| O=C(COC(=O)c1cc(S(=O)(=O)N2CCCCC2)ccc1N1CCOCC1)c1ccc(Cl)cc1 | -46.1 |
| Cc1ccc(CNC(=O)CCNC(=O)c2ccco2)cc1 | 4.4 |
| COc1ccc(NC2=C(C)C(=O)CC2)cc1 | 8.74 |
| CC(=O)/C(C(=N)N1CCN(Cc2ccccc2)CC1)=C(\C)O | 11.4 |
| CCn1cc(S(=O)(=O)NC2CCCCC2)cn1 | -3.41 |
| COC(=O)C(C)n1cnc2c(nnn2-c2ccc(C)cc2)c1=O (stereo not drawn) | -10.6 |
| O=C(COC(=O)c1nc(Cl)ccc1Cl)NC1CCCCCC1 | -22.3 |
| Cc1cccc(NC(=O)c2ccc([N+](=O)[O-])cc2Cl)n1 | -22.8 |
| O=C(c1cc(N2CCCCC2)nc2ccccc12)N1CCOCC1 | -7.87 |
| Cc1cc2c(cc1C)N(C(=O)CN1C(=O)c3ccccc3C1=O)C(C)(C)c1ssc(=S)c1-2 | 8.22 |
| CCCC(C(=O)N(C)CC(=O)Nc1ccc(N2CCOCC2)cc1)c1ccccc1 (stereo not drawn) | -18.3 |
| CCOC(=O)C(Sc1nnc(-c2ccncc2)o1)C(C)=O (stereo not drawn) | 27.7 |
| CCN1CCN(C(=O)CCCCCn2c(=O)[nH]c3cc(C(=O)OC)ccc3c2=O)CC1 | 7.14 |
| CN(C)C(CN1C(=O)C2CC=CCC2C1=O)c1cn(C)c2ccccc12.Cl (stereo not drawn) | -1.75 |
| Cc1cccn2c(=O)c(/C=C(\C#N)C(=O)NCc3ccco3)c(N3CCCC(C)C3)nc12 (stereo not drawn) | -40.9 |
